According to PubChem BioAssay AID1346428 (National Center for Advancing Translational Sciences (NCATS), 2018):
Hit rate of the full screen: of about 48,000 compounds, about 1,200 (2.5%) were called active. Inconclusive means that the source gave no clear call. Such entries were picked first, then a sample of the others.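 The calls were made as follows: active = activation of at least 60% and not above a set upper limit (about 1 call in 100 departs from these limits); inconclusive = activation of 40% to 60%, or above that upper limit; inactive = activation under 40%.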

Each compound was assayed against Probable G-protein coupled receptor 32 (Homo sapiens) (UniProt O75388) (assay: qHTS for Agonists of Human Resolvin D1 Receptor DRV1). Conditions: CHO-K1 GPR32 beta-arrestin PathHunter luminescence, 90 min; at 76.9 µM; active compounds read high; zero percent set by DMSO-only wells.
Sequence of UniProt O75388 (O75388 whole entry, looked up): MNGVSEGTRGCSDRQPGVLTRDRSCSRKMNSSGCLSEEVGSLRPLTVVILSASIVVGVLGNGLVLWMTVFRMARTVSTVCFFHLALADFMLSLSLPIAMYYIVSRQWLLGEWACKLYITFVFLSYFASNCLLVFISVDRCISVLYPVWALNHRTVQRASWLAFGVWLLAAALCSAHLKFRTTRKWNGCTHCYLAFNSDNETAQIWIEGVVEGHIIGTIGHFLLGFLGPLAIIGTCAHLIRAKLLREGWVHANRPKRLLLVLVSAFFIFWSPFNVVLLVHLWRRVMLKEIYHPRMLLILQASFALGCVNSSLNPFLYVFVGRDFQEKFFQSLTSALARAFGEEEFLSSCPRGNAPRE
In short: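 Using DMSO wells as EC0, agonist-induced signal was taken as chemiluminescence from beta-Gal reconstituted upon beta-arrestin recruitment to GPR32 in CHO-K1 cells after 90 min compound treatment.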
With `COc1ccccc1NC(=O)CSc1ncc2c(n1)-c1cc(Cl)ccc1N(Cc1ccccc1)S2(=O)=O` the activation was inconclusive: 230%. For `CCOc1ccc(-c2nc3cc(NC(=O)COc4cccc(C)c4)ccc3o2)cc1`, the activation was inconclusive: 127%. For `Cc1ccc(CNC(=O)CN2C(=O)CCc3cc(S(=O)(=O)N4CCCCC4)ccc32)cc1`, the activation was inconclusive: 650%. `O=C(Cn1c(=O)oc2cc(S(=O)(=O)N3CCCCC3)ccc21)NCc1ccc(F)cc1` was tested, and the activation was inconclusive: 53.9%. `CCn1c(SCC(=O)c2ccccc2)nnc1-c1cccc(Cl)c1` was tested, and the activation was inconclusive: 201%. For `CC1=C(C(=O)OCc2ccc(C)cc2)C(c2cccc(F)c2F)CC(=O)N1` (stereo not drawn), the activation was inconclusive: 55.2%. In the case of `COc1ccc2c(CNCCc3cccs3)c(C(=O)O)n(Cc3cccc(F)c3)c2c1`, the activation is reported as inconclusive: 126%. For `Cc1ccc(N(C)C(=O)CN2C(=O)CCc3cc(S(=O)(=O)N4CCOCC4)ccc32)cc1`, the activation was inconclusive: 51.8%. For `CCc1ccc(OCCCSc2nc(-c3ccc(C(C)(C)C)cc3)nc3cc(=O)[nH]n23)cc1`, the activation was inactive: -39.4%. With `COc1ccccc1NC(=O)CSc1nnc(-c2ccccc2C)o1` the activation was inconclusive: 51.8%. `CC(C)Cc1ccc(S(=O)(=O)N2CCC(c3ccncc3)CC2)cc1` was tested, and the activation was inactive: 10.2%. `Cc1ccc(NC(=O)CCOc2ccccc2)cc1` was tested, and the activation was inactive: -9.34%. For `CC1CCN(c2nc3ccc(C(=O)NC(C)C)cc3s2)CC1`, the activation was inconclusive: 354%. With `CC1=C(c2ccc(C(C)C)cc2)S(=O)(=O)N=C1N1CCC(C(=O)Nc2ccc(C)cc2)CC1` the activation was inconclusive: 58.1%. In the case of `Cc1cc2[nH]c(=O)c(=O)[nH]c2cc1S(=O)(=O)N1CCN(c2ccccc2)CC1`, the activation is reported as active: 95%. `O=c1cc(COc2ccccc2Cl)nc2scc(-c3ccccc3)n12` was tested, and the activation was active: 86.2%. For `COc1ccc(CCNc2ncnc3c2cnn3-c2ccc(C)c(Cl)c2)cc1`, the activation was inconclusive: 129%. `COc1cccc(-c2cn3c(n2)sc2cc(C(=O)NC4CCCCC4)ccc23)c1` was tested, and the activation was inconclusive: 50.9%. With `CCCCc1ccc(NS(=O)(=O)c2cc3c4c(c2)CC(=O)N4CCC3)cc1` the activation was active: 105%. In the case of `CCOC(=O)c1c(S(=O)(=O)N2CCC(C(=O)Nc3ccc(C)c(Cl)c3)CC2)c(C)n(C)c1C`, the activation is reported as inconclusive: 121%. In the case of `Cc1cccc(-c2nc3c4ccccc4n(Cc4cccc(Cl)c4)c(=O)n3n2)c1`, the activation is reported as inactive: -13%. For `O=S(=O)(c1ccc(-c2cc(C(F)(F)F)on2)s1)N1CCN(c2ccc(F)cc2)CC1`, the activation was inconclusive: 51%. With `CS(=O)(=O)N(CC(=O)Nc1ccc(Br)cc1)c1ccccc1Br` the activation was active: 60.8%.
